A collection of fitness landscapes (doi:10.1038/s41467-024-54723-y)
Whole data set: some 18,000 sequences, median “TetR repression strength (sort-seq, GFP reporter)” near 0.23, cut for the highest 2% near 0.68. This is one part of the list.

molecular target: TetR (class B, Tn10) (UniProt P04483); experiment: TetR repression strength (sort-seq, GFP reporter) (relative to tetO2 = 1); higher = stronger repression; conditions: E. coli
In short: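 In LB with 50 µg/mL chloramphenicol, E. coli SIG10-MAX holding a low-copy library with eight randomized operator positions between a constitutive promoter and sfGFP, plus constitutive TetR, grew for 5 h at 37 °C. FACS then sorted 10^6 cells into 13 fluorescence bins for Illumina sequencing of each bin. Repression strength equals the top bin index plus one less the read-weighted mean bin, normalized to the unaltered operator. Values from three independent transformations were averaged when reads were ≥30 in every replicate and the CV was ≤0.5.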

Sequence of UniProt P04483 (P04483 whole entry): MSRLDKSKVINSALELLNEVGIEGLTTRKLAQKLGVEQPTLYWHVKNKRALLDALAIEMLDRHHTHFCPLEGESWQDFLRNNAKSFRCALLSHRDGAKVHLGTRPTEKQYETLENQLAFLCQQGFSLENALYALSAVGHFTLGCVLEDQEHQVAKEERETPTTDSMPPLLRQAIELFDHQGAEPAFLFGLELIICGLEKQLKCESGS

Sequence	TetR repression strength
TCCCTTCGAGTCTCGGAGA	0.042
TCCCTTCTAGTAGGAGAGA	0.35
TCCCAAAGAGTCCTAGAGA	0.299
TCCCTCGCAGTTCGAGAGA	0.167
TCCCGCTCAGTGATCGAGA	0.435
TCCCGTCAAGTGACCGAGA	0.138
TCCCTCACAGTTGTAGAGA	0.373
TCCCCGCTAGTTTATGAGA	0.359
TCCCTCGTAGTGGGGGAGA	0.167
TCCCAGCTAGTTAGAGAGA	0.352
TCCCCGACAGTGGGGGAGA	0.175
TCCCTAGAAGTAGATGAGA	0.277
TCCCTTTAAGTCTGGGAGA	0.219
TCCCTCCGAGTAAACGAGA	0.408
TCCCTTTGAGTGGGTGAGA	0.495
TCCCCATTAGTTGTAGAGA	0.237
TCCCTAGGAGTTTCAGAGA	0.254
TCCCCTCAAGTCGGGGAGA	0.0661
TCCCCTAGAGTCCAAGAGA	0.213
TCCCCGCAAGTTGTTGAGA	0.198
TCCCTACTAGTCTGGGAGA	0.175
TCCCTCAGAGTATAAGAGA	0.292
TCCCACGTAGTTGGCGAGA	0.242
TCCCGGGAAGTCGCTGAGA	0.261
TCCCATTGAGTATGGGAGA	0.0159
TCCCTGACAGTCAGTGAGA	0.176

Sequence	TetR repression strength
TCCCTAGTAGTGGGGGAGA	0.206
TCCCCGCAAGTTGATGAGA	0.85
TCCCGGCTAGTAATAGAGA	0.674
TCCCGGGGAGTGTAGGAGA	0.485
TCCCCCATAGTACAAGAGA	0.4
TCCCTGGCAGTTGAGGAGA	0.14
TCCCAATGAGTTATAGAGA	0.607
TCCCTATCAGTGCGGGAGA	0.41
TCCCACTAAGTCGAGGAGA	0.201
TCCCTATCAGTGGGTGAGA	0.554
TCCCAAGTAGTGGATGAGA	0.229
TCCCATTCAGTAAAGGAGA	0.272
TCCCTTGAAGTTTGAGAGA	0.128
TCCCGTATAGTTGGGGAGA	0.156
TCCCCGTGAGTCTGTGAGA	0.631
TCCCGGGGAGTCGGTGAGA	0.245
TCCCGGGAAGTCAAAGAGA	0.19
TCCCGTTGAGTAGGGGAGA	0.0793
TCCCATGTAGTTAGTGAGA	0.24
TCCCTTCTAGTAAGAGAGA	0.223
TCCCACTCAGTCAAAGAGA	0.367
TCCCAAAAAGTGTGAGAGA	0.197
TCCCATTGAGTATGAGAGA	0.184
TCCCTAGTAGTCAGTGAGA	0.435
TCCCGAGGAGTACGGGAGA	0.219
TCCCACAGAGTCTGTGAGA	0.0546

Sequence	TetR repression strength
TCCCAGCGAGTAGGTGAGA	0.145
TCCCTGGTAGTGAGTGAGA	0.057
TCCCGGGAAGTCGGAGAGA	0.202
TCCCAGTAAGTCCGAGAGA	0.263
TCCCGCCGAGTTGAGGAGA	0.429
TCCCGCGGAGTGATAGAGA	0.597
TCCCTGGAAGTCAGTGAGA	0.326
TCCCAAACAGTTGTAGAGA	0.242
TCCCAGCTAGTCGACGAGA	0.126
TCCCGAACAGTTTTGGAGA	0.291
TCCCTACTAGTAGCTGAGA	0.307
TCCCGGTTAGTGTCGGAGA	0.298
TCCCAACGAGTGAGCGAGA	0.301
TCCCGGGGAGTGGTCGAGA	0.207
TCCCTGTTAGTAGGCGAGA	0.421
TCCCCACTAGTGTTTGAGA	0.549
TCCCGTTCAGTAGATGAGA	0.246
TCCCGAAGAGTATGGGAGA	0.145
TCCCTGGAAGTCTAGGAGA	0.023
TCCCTTGTAGTTTAGGAGA	0.503
TCCCATTGAGTGCACGAGA	0.443
TCCCTAATAGTACAGGAGA	0.32
TCCCGATAAGTGTAGGAGA	0.238
TCCCGTGGAGTAACCGAGA	0.188
TCCCTGAAAGTTAGGGAGA	0.308
TCCCCGCGAGTTTCTGAGA	0.357

Sequence	TetR repression strength
TCCCATTTAGTAGCTGAGA	0.0133
TCCCGGGCAGTACAAGAGA	1.05
TCCCTTCGAGTGGTCGAGA	0.352
TCCCTTGGAGTCAAGGAGA	0.283
TCCCGTGGAGTATAGGAGA	0.127
TCCCGGCGAGTCTATGAGA	0.448
TCCCCGAAAGTCAGTGAGA	0.209
TCCCATTAAGTTCTGGAGA	0.285
TCCCGTGCAGTTGCAGAGA	0.376
TCCCTCGGAGTGTTGGAGA	0.349
TCCCTAGAAGTGGTTGAGA	0.243
TCCCAGGGAGTAACAGAGA	0.261
TCCCGGCGAGTGTGCGAGA	0.153
TCCCGTCAAGTCAAAGAGA	0.27
TCCCGGCAAGTTAGGGAGA	0.134
TCCCGGCAAGTAGTTGAGA	0.144
TCCCCTGCAGTCGGGGAGA	0.169
TCCCAATTAGTTTGCGAGA	0.236
TCCCAGGGAGTTCCAGAGA	0.216
TCCCAGTAAGTCTCGGAGA	0.206
TCCCATTTAGTATAAGAGA	0.275
TCCCCAGCAGTGCACGAGA	0.175
TCCCTGTGAGTTCTGGAGA	0.225
TCCCCGCTAGTCTCAGAGA	0.319
